# Single values of this set are uncertain.
# Assay: amyloid nucleation score relative to library mode (yeast Sup35 reporter selection) (log enrichment difference); higher = more amyloid nucleation; sequences are the first 22 residues of the Bri2 peptide extended by up to 12 random residues
# Settings: random library (experiment): 1;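 active = nucleation score significantly above 0 at FDR 0.05; inactive = not significantly above 0 or absent from output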
# 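Also: [psi-pin-] Saccharomyces cerevisiae expressing SupN fusions, induced by 100 µM Cu2SO4, selected 7 d at 30 °C without adenine and uracil, scored by deep sequencing of output versus input.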
row,Sequence,amyloid nucleation score
1,EASNCFAIRHFENKFAVETLICPVEHRTE,inactive
2,EASNCFAIRHFENKFAVETLICLRCVVRSRMD,2.14
3,EASNCFAIRHFENKFAVETLICAPWIYS,inactive
4,EASNCFAIRHFENKFAVETLICYMVPGVRRRLCR,inactive
5,EASNCFAIRHFENKFAVETLICLDLTCVLALGWT,-0.146
6,EASNCFAIRHFENKFAVETLICPFWSKTVMISVY,1.76
7,EASNCFAIRHFENKFAVETLICMVRLYSVMVVGW,inactive
8,EASNCFAIRHFENKFAVETLICVSECVT,inactive
9,EASNCFAIRHFENKFAVETLICQNGLAAPDVCRE,2.74
10,EASNCFAIRHFENKFAVETLICTH,inactive
11,EASNCFAIRHFENKFAVETLICGLD,inactive
12,EASNCFAIRHFENKFAVETLICVFPSEVLWRWWK,4.73
13,EASNCFAIRHFENKFAVETLICLVALSTRLRVPQ,inactive
14,EASNCFAIRHFENKFAVETLICTNLCPIRRNAIV,1.28
15,EASNCFAIRHFENKFAVETLICLQRVLTCWRKWM,inactive
16,EASNCFAIRHFENKFAVETLICRFSHSHSNEVKG,inactive

row,Sequence,amyloid nucleation score
1,EASNCFAIRHFENKFAVETLICTNDGVTRAYVRR,2.98
2,EASNCFAIRHFENKFAVETLICAKRVFNLRCRKG,-0.137
3,EASNCFAIRHFENKFAVETLICHWPCSRYKRQWA,-0.546
4,EASNCFAIRHFENKFAVETLICGFANVVCGLRTV,4.46
5,EASNCFAIRHFENKFAVETLICDRLQEAGVRQGG,inactive
6,EASNCFAIRHFENKFAVETLICVLQPCERAGWSR,5.66
7,EASNCFAIRHFENKFAVETLICTNVQDIAVELRH,6.01
8,EASNCFAIRHFENKFAVETLICLCMVFKLMNCF,0.944
9,EASNCFAIRHFENKFAVETLICVVFLLRRGRSGM,inactive
10,EASNCFAIRHFENKFAVETLICYWPRSQG,6.15
11,EASNCFAIRHFENKFAVETLICLHVLVRARDRIY,0.474
12,EASNCFAIRHFENKFAVETLICVGRVRRPMLEAC,inactive
13,EASNCFAIRHFENKFAVETLICCLLLNQRVYGLS,inactive
14,EASNCFAIRHFENKFAVETLICDLHRPVKNCVMP,inactive
15,EASNCFAIRHFENKFAVETLICTDGCVSDGATVQ,inactive
16,EASNCFAIRHFENKFAVETLICRCGNERLVGLGA,-0.273

# Same assay, conditions: random library (experiment): 2
row,Sequence,amyloid nucleation score
1,EASNCFAIRHFENKFAVETLICCDNSIHFCSVRS,-0.104
2,EASNCFAIRHFENKFAVETLICCLLAMSLMWYN,inactive
3,EASNCFAIRHFENKFAVETLICDFFCYLSWRMEV,inactive
4,EASNCFAIRHFENKFAVETLICFMFFYFCVYCLF,3.83
5,EASNCFAIRHFENKFAVETLICQVDPFAVVHYNR,inactive
6,EASNCFAIRHFENKFAVETLICDYPC,inactive
7,EASNCFAIRHFENKFAVETLICGVGGVFRVCLIY,inactive
8,EASNCFAIRHFENKFAVETLICWRFRQRNSKRVL,inactive
9,EASNCFAIRHFENKFAVETLICHGSCVGEQYINK,5.8
10,EASNCFAIRHFENKFAVETLICLLSLVCCVSC,7.7
11,EASNCFAIRHFENKFAVETLICDMVGN,inactive
12,EASNCFAIRHFENKFAVETLICTRSIRYVCCM,1.55
13,EASNCFAIRHFENKFAVETLICRLLFVTNFTWFK,inactive
14,EASNCFAIRHFENKFAVETLICKGYLLVDAQVPA,inactive
15,EASNCFAIRHFENKFAVETLICGTLCYSRIGNCV,5.11
16,EASNCFAIRHFENKFAVETLICIRVMSFGSVNMN,inactive
17,EASNCFAIRHFENKFAVETLICERVYM,5.51
18,EASNCFAIRHFENKFAVETLICDGKNLYFVNGLF,3.63
19,EASNCFAIRHFENKFAVETLICCDPVRWCRVSCG,inactive
20,EASNCFAIRHFENKFAVETLICKHFWAMLMKYCT,inactive
21,EASNCFAIRHFENKFAVETLICTCVGVNA,inactive
22,EASNCFAIRHFENKFAVETLICDAPLYCMWSVGL,inactive
23,EASNCFAIRHFENKFAVETLICFLFCSGVSMWVK,inactive
24,EASNCFAIRHFENKFAVETLICARYQRSACWFCM,inactive
25,EASNCFAIRHFENKFAVETLICGIFITDSRLLE,3.13
26,EASNCFAIRHFENKFAVETLICMGWTRKSLPECI,inactive

# Same assay, conditions: random library (experiment): 3
row,Sequence,amyloid nucleation score
1,EASNCFAIRHFENKFAVETLICAFNMCMWTRESV,8.1
2,EASNCFAIRHFENKFAVETLICQDRRYGICMASS,inactive
3,EASNCFAIRHFENKFAVETLICFKHDGKSVGRMG,3.94
4,EASNCFAIRHFENKFAVETLICLTRARFLGRMWG,0.778
5,EASNCFAIRHFENKFAVETLICVQDHEDCEYLW,inactive
6,EASNCFAIRHFENKFAVETLICPGKETDGEGRLL,inactive
7,EASNCFAIRHFENKFAVETLICGYASVVFRGNVD,inactive
8,EASNCFAIRHFENKFAVETLICEVSQRLRLGWEV,4.84
9,EASNCFAIRHFENKFAVETLICTQVV,inactive
10,EASNCFAIRHFENKFAVETLICRAKGGVCEYPRR,0.658
11,EASNCFAIRHFENKFAVETLICKNICYGFKLAVS,inactive
12,EASNCFAIRHFENKFAVETLICMEVQSSLFRKVW,inactive
13,EASNCFAIRHFENKFAVETLICTRCMMGRNVDLR,inactive
14,EASNCFAIRHFENKFAVETLICHKMFTVCMAGVR,inactive
15,EASNCFAIRHFENKFAVETLICGAFCQG,4.41
16,EASNCFAIRHFENKFAVETLICGQL,inactive
17,EASNCFAIRHFENKFAVETLICYRHCTW,5.43
18,EASNCFAIRHFENKFAVETLICNCVSVEVIRYLR,6.99
19,EASNCFAIRHFENKFAVETLICAVISAYTIRLMI,inactive
20,EASNCFAIRHFENKFAVETLICHFETNCVGVPRV,4.98
21,EASNCFAIRHFENKFAVETLICGRCLCRDVRHAK,7.57
22,EASNCFAIRHFENKFAVETLICETVVVVLRACEP,inactive
23,EASNCFAIRHFENKFAVETLICDLSRWVSRPRIW,2.28
24,EASNCFAIRHFENKFAVETLICQG,inactive
25,EASNCFAIRHFENKFAVETLICVFMGSAMGWERR,3.24
26,EASNCFAIRHFENKFAVETLICMTPAAGMWRGWL,4.78
27,EASNCFAIRHFENKFAVETLICVRMYSMEYYCGW,2.14
28,EASNCFAIRHFENKFAVETLICCNRMNTYTTGAS,7.16

# Reference: the supplement of paper PMC12067230
